The other results are listed elsewhere or left out.

These results are taken from the supplement of paper PMC11417369.

This experiment has as its system PfSIP2 AP2 domain 1 (GST-tagged). Briefly: gcPBM binding intensity (ln(normalized median fluorescence intensity)); higher = stronger DNA binding. In short, it runs like this:
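The highest Masliner-normalised natural-log median intensity across replicate spots of either probe orientation is reported as binding intensity. GST-tagged P. falciparum DNA-binding domains expressed in E. coli were applied for 1 h to an Agilent 4 × 180k array of primer-extended double-stranded 36-bp intergenic genomic probes plus negative controls, and bound protein was detected with Alexa488 anti-GST antibody and scanned at 488 nm.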
On to “TCACTATAGTAATTTACACACATTTGAAGAAAATGT [CACACA_site7626]”, for which the “gcPBM binding intensity (ln)” value came out at 6.98. The same measure for “TAGAATATGTTTAGTTGTACAAAACAAAATGGAATT [XGTACX_site5293]”: 6.93; for “CACATAAAAAAATAAACACACATATGTATATATATA [CACACA_site3177]”: 8.31. With “ATTTATTTTTTGTGTTCACACATTAGTATCATCTAT [CACACA_site5274]” the figure was 6.85; with “ATTTTTCTAAAATACTGTACAAAGGTGCATAAAAAG [XGTACX_site4425]”, 11.5; with “TCTAATGATATATACACACACATATAGATTTATATA [CACACA_site7044]”, 6.98. The same measure for “ATATTTATGGAATATACACACATGTATAATTATATA [CACACA_site2033]”: 6.96; for “TTTTCTGTTTTCATTACACACCTTACAAGAACAATA [CACACA_site2158]”: 7.65. Turning to “TGCTTTTCTTTTTGCACACTTATGCATATATATATA [CACACA_site2583]”, the “gcPBM binding intensity (ln)” value was determined as 9.5.

As to “AAATAAGAAAAAGCGCGTACACATAACATTTTTATA [XGTACX_site8807]”, the “gcPBM binding intensity (ln)” value came out at 7.25. TTTATTCAAGGAATAGTGCATAATAATAAGTATTAT: the “gcPBM binding intensity (ln)” value amounted to 8.18. Consider TGTATTCTCTTAGTAGTGCATTTGAAGATTATATAA, for which the “gcPBM binding intensity (ln)” value was determined as 9.31. On to “ATTTTTTTTTTTTTTTCATGAAATTTTTTTTTTTTT [CACACA_negctrl_site1069]”, for which the “gcPBM binding intensity (ln)” value came out at 6.85.

“TTAAAAAAAAATAAAGGTACACGGAGAAATCCTTTT [XGTACX_site7509]”: the “gcPBM binding intensity (ln)” value came to 6.54. With “ATATATTTATTATTAGGTACACATATATATATATAT [XGTACX_site5045]” the figure was 9.3; with “AACCACCACACCATCACACATAAGATTAGACGAGTA [CACACA_site6063]”, 7.23. The same measure for “TTATATAGAATTAATTTCTTTTTTTTCTTTTTTAAA [CACACA_negctrl_site1308]”: 6.42. With “TGTAGTAATGCTTATTGTACATATACATTTCTTACA [XGTACX_site219]” the figure was 6.92; with “TTTTTTTTTCGCTTTTGTACACATTTTATAGAACAG [XGTACX_site2416]”, 7.33.

Turning to “TATTATATATATGGAAGTACAGGTATATCGTTTTTC [XGTACX_site3771]”, the “gcPBM binding intensity (ln)” value amounted to 7.08. Regarding “TTTTCCCTTAACCTCTGTACATATAATTTTCTTTCC [XGTACX_site4180]”, the “gcPBM binding intensity (ln)” value was found to be 7.27. With “AAATATTTTTTAATTGTTCACTTGGTGGATCATTAA [CACACA_negctrl_site922]” the figure was 6.76; with “TATCCATTATTTAAAAGTACAAAAAACGATTTACAC [XGTACX_site2979]”, 7.28; with “AATATCACATTCCACGGTACACACTAAAAGAAAAAT [XGTACX_site7653]”, 7.17. The same measure for “ATAAATACGATTAATTAGGTTTGTATAAATTAAATT [GTGCAC_negctrl_site635]”: 6.76; for “TCATGTAGTAAAAACTGTACAAATTATTTATCATGT [XGTACX_site1727]”: 6.96.

As to “ATAACTTTTGCGCGTACACACATTTATCCTCTTTAT [CACACA_site209]”, the “gcPBM binding intensity (ln)” value is 7.59. On to “TTTTCTTTATTATAATGTACTCACAAATAAATATAA [XGTACX_site7298]”, for which the “gcPBM binding intensity (ln)” value came to 7.19. With “CTATAATAGAAGTGTACACACATATTTATGTCTGTA [CACACA_site7462]” the figure was 7.15; with “TTTCATTTTAGAAGTACACACAAAAAATAAAATAAT [CACACA_site2141]”, 7.82. In the case of “AAAATTGTGAAAGGGAAGATGATCAAATTGTTAAGG [CACACA_negctrl_site1492]”, the “gcPBM binding intensity (ln)” value worked out at 7.01.

“GATGGGCAAATTTACTGTACTTTTATAATATTTTTT [XGTACX_site4830]”: the “gcPBM binding intensity (ln)” value was determined as 7.42. The same measure for “TATAATGGTAAAAACACACAAATATGAAGATGTTAA [CACACA_site6479]”: 6.66; for “GTACCTATAAATATTACACACATTTTCATTTTTAAC [CACACA_site7022]”: 7.38; for “AAAAAAAATTATATTTGTACGCATTAAAAAATCTAA [XGTACX_site1616]”: 6.99. On to “CTTAAAAACAAAAATGCACACATAATAAGCATATGT [CACACA_site9149]”, for which the “gcPBM binding intensity (ln)” value is 7.26. The same measure for “ATTAAACTCATTAAGAGTACAGATAACATTAAAGTA [XGTACX_site8697]”: 6.99; for “TGAAATTAGATATATACACACATATAGATTTATATG [CACACA_site7619]”: 6.9.

With “TATTTTTTCTTAAACACACACATATAGATTTATAAC [CACACA_site7354]”, the “gcPBM binding intensity (ln)” value is 7.26. The same measure for “TGTCCTTATTGGCACACACACATATAAGAAATTTAA [CACACA_site5724]”: 7.23. The same measure for “TTTTTTAAAGCCTGTTCATCATCCTTACCTATCAAC [GTGCAC_negctrl_site452]”: 6.81; for “CTAATTCGTATATGCTGTACCTTTTTCTTACGACTA [XGTACX_site4392]”: 6.93. The same measure for “ATATGGAATGATCATAGTACATAATTTAAAATTTTA [XGTACX_site3568]”: 6.74; for “ACCCTATTTATATATACACACACATATATAAATAAA [CACACA_site8980]”: 7.52; for “AACATATATAATATTTGTACTTATATACAAAATATG [XGTACX_site7502]”: 6.84.

As for “ATAGGATGTTTGCACTGTACCAAAAAATGAGCTGCA [XGTACX_site2825]”, the “gcPBM binding intensity (ln)” value worked out at 8.09. The same measure for “ATCAGATATATATATTGTACATTTATATATAAATCA [XGTACX_site1960]”: 7.15; for “ATTAAAAATTATATTTTATAAAAATTAAAAGAAATA [CACACA_negctrl_site65]”: 6.98. With “AAAGTATACAATGACGCATGCATATATATATACATA [TGCATGCA_site429]” the figure was 6.81. “ATTTATTTATCTAGCTATTCACCATTTTCTTTTGTT [CACACA_negctrl_site1259]”: the “gcPBM binding intensity (ln)” value was determined as 6.61. The same measure for “TATATATATATACATACATGCATATATATATATATA [TGCATGCA_site513]”: 9.32; for “AATACAATAAAAAAAAGTACACATGTATAAAAAATT [XGTACX_site8270]”: 7.05; for “TGTTATCAGAAAGCACGTACATATAATTATATATTC [XGTACX_site4188]”: 7.23. With “AATATATCTTATTTAACACACACAAAGAAAATAGAA [CACACA_site9242]” the figure was 7.35; with “TAGAAAATCAGTTAAACACACACATAAAAAAAAAAA [CACACA_site8933]”, 6.74; with “TTCTTATTTGTACTAGTGCAATAGAAAATAAATAAA [GTGCAC_site9731]”, 8.2. The same measure for “TATATAATATATATATGTACACATTTGCAAACAATG [XGTACX_site6941]”: 7.42; for “ATGAATTAATCTAATCGTACAATAAGCATTATTATA [XGTACX_site2571]”: 6.73; for “GAATATGTAAAGAAAGGTACACATGAAAATATGTGT [XGTACX_site446]”: 6.98. As to “TGTACCTACAAAATATGATATATTTTTATAAATTGT [XGTACX_negctrl_site498]”, the “gcPBM binding intensity (ln)” value was 6.89.

With “AAATATACATACATATGTACATATATATATATATAT [XGTACX_site8202]”, the “gcPBM binding intensity (ln)” value is 9.84. The same measure for “ATAGTTAAAAAAAAAAAAAAAAAAAAAAGAGAGAGA [CACACA_negctrl_site1307]”: 7.19. Take ACAATAAAGAACAGTATGCACTTTTATGCATGCGTA: the “gcPBM binding intensity (ln)” value is 8.94. With “CTTTTTCTTTTCCGGCGTACAGACTTAGTAGTAGAT [XGTACX_site2268]” the figure was 7.16; with “TACATGCAAAAAATTCCACACACACCCCCACATATA [CACACA_site8329]”, 7.79. With “TAAAATATAGGAAATACATGCATATTAAATATTCCT [TGCATGCA_site1057]”, the “gcPBM binding intensity (ln)” value is 6.91. As to “TACTTCATTCATTTTACACACATATAAACCCTTTTA [CACACA_site3229]”, the “gcPBM binding intensity (ln)” value came out at 7.08.

For “ACTAATACATAAAAAAGTACAAATATGAGTATTAAC [XGTACX_site7281]”, the “gcPBM binding intensity (ln)” value amounted to 7.12.

For “TATATAGCTAAAAACACACAAATATGTACACATAAA [CACACA_site7665]”, the “gcPBM binding intensity (ln)” value worked out at 6.98. The same measure for “AAAAAAAAAAAAAGTACACACATACAGATAAATATA [CACACA_site5067]”: 7.62; for “ATAAATTGATTCAACACACACATATGTAGGAAGTTA [CACACA_site3253]”: 6.88. With “TTTTTTAAATTGGTAGTGCAATATGATTGAACAAAA [GTGCAC_site9715]”, the “gcPBM binding intensity (ln)” value came to 8.19. With “AAATTATTAAAAAAGTGTACATATTTTTATAATACC [XGTACX_site5610]”, the “gcPBM binding intensity (ln)” value was determined as 7.4. In the case of “ATAAGCATACATATTACACACATATAACATCTATAT [CACACA_site7219]”, the “gcPBM binding intensity (ln)” value was 7.08. In the case of “GGGTATACCAATATAACACACATATATATATAATAT [CACACA_site450]”, the “gcPBM binding intensity (ln)” value stood at 7.1. On to “TTAATCAAATTACTATGTACATAAAACATATAAGAA [XGTACX_site381]”, for which the “gcPBM binding intensity (ln)” value is 7.22. With “TATTTTTTTTCAAAAAAGTTTATTTAGAACTAAATA [XGTACX_negctrl_site487]” the figure was 6.79. With “TAAAAAAAAACTCATGCACACAATATTATGAAAAAG [CACACA_site665]” the figure was 7.42; with “AAATATTATGTACGCACACACATTTTTAATATATAA [CACACA_site3851]”, 7.37; with “TTATTTACAACTTCAAATTATGTGTAATACTACTAT [CACACA_negctrl_site741]”, 6.91. For “TTTTTTTCTTTTTACATACACACAAAAAAATAAAAT [CACACA_site580]”, the “gcPBM binding intensity (ln)” value is 7.17. For “AGCACATTATTCAAAAGTACAAATAGGTATTGTATA [XGTACX_site6107]”, the “gcPBM binding intensity (ln)” value came out at 6.96.

Take “AATATAAAAAAAAAAAAAAAAAAAAAAAAAAAGACA [CACACA_negctrl_site983]”: the “gcPBM binding intensity (ln)” value is 6.84. With CAATTATTGTAATGCATGCACTGAATATAAAAAGAA the figure was 9.18; with “TTTATATGTATTAAGTGTACACATATAATGTATTTT [XGTACX_site16]”, 7.35; with “AAATTAATGTATATGTGAAGCAAGGGATGCGGCAGA [CACACA_negctrl_site406]”, 7.48. With “ATATATATATATATATAATATATAATATATATATAT [CACACA_negctrl_site96]” the figure was 9.43; with TTCATATTCGATAAAGTGCATTAATTTTATTTATCA, 8.36; with TCCAATTGTTCTAGTGTGCACATAAATAAATCTCAT, 9.07.
